Assay results: PubChem BioAssay AID445 (National Center for Advancing Translational Sciences (NCATS), 2006)
The campaign covered roughly 110,000 compounds. About 40 (0.04%) were called active. Inconclusive means that the source gave no clear call. Such entries were picked first, then a sample of the others. Calls come from the whole dose curve; as a rule, active = well fitted curve in the direction sought with a large enough effect in the signal ratio (not every such curve was filed as active); inconclusive = small, poorly fitted or top-dose-only effect, or a change in a side signal; inactive = flat fitted curve, though single readings scatter; the % refers to the signal ratio. Potencies of inconclusive entries are doubtful fits and often do not repeat.
Potency is the fitted concentration of half-maximal effect.

Test: IkB Signaling;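 for IkBa stabilization activation: 0% = basal untreated cells and 100% = reference inhibitor full response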
Conditions: ABC-DLBCL IkBa-CBG/CBR dual luciferase ratio (green luciferase fused to IkBa over red control in OCI-Ly3 lymphoma cells), 4 h; IkBa stabilization activation: at 57.1 µM (top of the series), scaled: untreated 0%, proteasome inhibitor 100% unless noted
Procedure, shortened: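 In this assay, an IκBα–CBG68 fusion accumulates when IKK-driven degradation is blocked; native CBR normalizes for cell number. OCI-Ly3 cells were treated 4 h with compound and doxycycline, then green and red light read after Chroma-Glo addition.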
In the case of COc1ccc(-c2noc(CN3CCN(c4ccccc4F)CC3)n2)cc1OC, the IkBa stabilization activation is reported as inconclusive: 1.54% [signal inhibitor].
In the case of Cc1cccc(C(=O)Nc2ccc(-c3nc4cc(C(C)C)ccc4o3)cc2)c1, the Potency is reported as inconclusive: 15.8 µM [signal inhibitor].
With Cc1ccc(N2CCN(C(=O)NCc3noc4ccccc34)CC2C)cc1 (stereo unspecified) the IkBa stabilization activation was inconclusive: 0.393% [signal inhibitor].
For O=C(Oc1cc(=O)oc2ccccc12)c1ccco1, the Potency was inconclusive: 0.0794 µM [signal inhibitor, full curve].
With COc1cccc(-c2cc(C(=O)NCc3ccco3)no2)c1 the IkBa stabilization activation was inconclusive: 8.56% [signal inhibitor].
For Cn1c(=O)n(Cc2ccc(F)cc2)c(=O)c2c1nc1n2CCCN1Cc1ccccc1, the IkBa stabilization activation was “inactive”.
For COc1ccc(Cl)cc1S(=O)(=O)N1CCN(Cc2cccc(F)c2)CC1, the IkBa stabilization activation was inconclusive: 3.62% [signal inhibitor].
For O=C(c1ccco1)N1CCN(c2c(-c3ccccc3)c3cc(Cl)ccc3[nH]c2=O)CC1, the IkBa stabilization activation was inconclusive: 1.38% [signal inhibitor].
With CCCOc1ccc(C(=O)N(Cc2cccs2)c2ccc(C)cc2)cc1 the IkBa stabilization activation was inconclusive: 1.99% [signal inhibitor].
For COc1ccc(-c2c3c(nc4sc(C(=O)Nc5ccc(F)cc5)c(N)c24)CC(C)(C)CC3=O)cc1, the Potency was inconclusive: 20 µM [signal inhibitor, partial curve].
With CCOC(=O)c1c(C)oc2ncnc(NCCCN3CCN(c4cc(C)ccc4C)CC3)c12 the IkBa stabilization activation was inconclusive: -4.24% [signal inhibitor].
In the case of Cc1occc1-c1nnc(SCC(=O)Nc2ccccc2N2CCCCC2)n1C, the IkBa stabilization activation is reported as “inactive”.
For Cc1ccc2nc(NC(=O)C3CCN(S(=O)(=O)c4cccs4)CC3)sc2c1, the IkBa stabilization activation was “inactive”.
With CCCN(CCC)C(=O)Cn1c(=O)n(-c2ccc(C)cc2)c(=O)c2ccc(C(=O)NCc3ccccc3Cl)cc21 the IkBa stabilization activation was inconclusive: 2.94% [signal inhibitor].
With CNC(=O)C1CCN(Cc2cc3ccccc3n2Cc2ccccc2C)CC1 the IkBa stabilization activation was inconclusive: -0.0146% [signal inhibitor].
In the case of Cc1ccc(-c2cn3c(n2)sc2cc(C(=O)NCc4cccs4)ccc23)cc1, the IkBa stabilization activation is reported as inconclusive: 1.15% [signal inhibitor].
In the case of Cc1oc(-c2ccccc2)nc1CSc1nnc(C)n2c1cc1sccc12, the IkBa stabilization activation is reported as inconclusive: 1.08% [signal inhibitor].
In the case of CCOCCCNC(=O)CCC(=O)NNc1nc2ccccc2c2nc(-c3ccccc3)nn12, the IkBa stabilization activation is reported as inconclusive: -0.158% [signal inhibitor].
With O=C(NCc1cccc(Br)c1)C1CCN(C(=O)c2sccc2-n2cccc2)CC1 the IkBa stabilization activation was inconclusive: 3.81% [signal inhibitor].
For O=C(CCc1nnc2n(Cc3ccccc3Cl)c(=O)c3ccccc3n12)Nc1ccc(F)c(F)c1, the IkBa stabilization activation was inconclusive: 4.01% [signal inhibitor].
With COc1cccc(-n2cc(C(=O)Oc3cccc(C(F)(F)F)c3)c3ccccc3c2=O)c1 the IkBa stabilization activation was “inactive”.
In the case of Cc1ccc(O)c(NC(=O)c2noc3c2CCCCC3)c1, the IkBa stabilization activation is reported as “inactive”.
In the case of CC(=O)N1c2ccccc2CC1C(=O)N1CCN(c2cccc(Cl)c2)CC1 (stereo unspecified), the IkBa stabilization activation is reported as inconclusive: 2.12% [signal inhibitor].
For O=C(CC1C(=O)N(c2ccc(F)cc2)C(=O)N1Cc1ccc2c(c1)OCO2)Nc1ccc(F)cc1 (stereo unspecified), the IkBa stabilization activation was inconclusive: 1.05% [signal inhibitor].
For CCOc1ccc(OCC)c(NC(=O)C(NS(=O)(=O)c2ccc(Br)s2)c2ccccc2)c1 (stereo unspecified), the IkBa stabilization activation was “inactive”.
For CCOC(=O)c1cnc2c(C)cccc2c1NCCc1ccc(OC)c(OC)c1, the IkBa stabilization activation was inconclusive: 17.9% [signal inhibitor].
For Cc1ccc(C)c(CN2C(=O)c3ccccc3S(=O)(=O)c3ccc(C(=O)N4CCCC4)cc32)c1, the IkBa stabilization activation was inconclusive: 1.86% [signal inhibitor].
With Cn1c(SCCSc2nnc(-c3ccccc3)n2C)nnc1-c1ccccc1 the IkBa stabilization activation was “inactive”.
With CCN(c1ncnc2c1cnn2-c1cc(Cl)ccc1C)C1CCCCC1 the IkBa stabilization activation was inconclusive: 1.84% [signal inhibitor].
With O=C(CN1C(=O)COc2ccc(S(=O)(=O)N3CCOCC3)cc21)N1CCN(c2cccc(C(F)(F)F)c2)CC1 the IkBa stabilization activation was inconclusive: 3.03% [signal inhibitor].
In the case of COc1ccc(C(=O)N2CCC3(CC2)CN(c2ccc(-c4ccccc4)cc2)C3)cc1, the IkBa stabilization activation is reported as inactive: 13.3% [at 11.4 µM, scaled: untreated 0%, proteasome inhibitor 100%].
With O=C1c2ccccc2C(=O)c2c(NC3CCCCC3)ccc(Nc3ccc(S(=O)(=O)O)cc3)c21 the IkBa stabilization activation was inactive: 4.48% [at 11.4 µM, scaled: untreated 0%, proteasome inhibitor 100%].
With COC(=O)[C@@H](N)Cc1ccc(O)c(O)c1 the IkBa stabilization activation was inconclusive: 12.8% [signal activator].
For CCCCC(=O)Nc1nn(C)c2nc3c(C)cccc3cc12, the IkBa stabilization activation was “inactive”.
With CCCn1cnc2cc(NCc3ccccn3)ccc21 the Potency was inconclusive: 15.8 µM [signal inhibitor, partial curve].
For Cc1ccccc1-c1nnc(CN2CCN(c3cccc(C)c3C)CC2)o1, the IkBa stabilization activation was inconclusive: 10.3% [signal inhibitor].
In the case of COc1cccc(NC(=O)CSc2nc3c([nH]c4ccccc43)c(=O)n2-c2ccccc2)c1, the IkBa stabilization activation is reported as inconclusive: 4.05% [signal inhibitor].
In the case of O=S(=O)(c1ccc2c(c1)OCCO2)N1CCN(Cc2ccc3c(c2)OCO3)CC1, the IkBa stabilization activation is reported as “inactive”.
In the case of CCCN1C(=O)c2[nH]nc(-c3ccccc3O)c2C1c1cccc(OCc2ccccc2)c1 (stereo unspecified), the IkBa stabilization activation is reported as inconclusive: -0.211% [signal inhibitor].
In the case of Cn1c(=O)c2[nH]c([C@@H]3CC(=O)C[C@H](c4nc5c([nH]4)c(=O)n(C)c(=O)n5C)N3)nc2n(C)c1=O, the IkBa stabilization activation is reported as inactive: -1.6% [at 11.4 µM, scaled: untreated 0%, proteasome inhibitor 100%].
With COCCNC(=O)C(=O)NCC(c1cccnc1)N1CCN(c2ccccc2OC)CC1 (stereo unspecified) the IkBa stabilization activation was inconclusive: -2.38% [signal inhibitor].
